# Data reported in a collection of fitness landscapes (doi:10.1126/science.1257360).
# This is one part of the list.
# B1: PhoQ; a variant is named by its letters at X, in order, P23837 (parent)
# chain: MKKLLRLFFPLSLRVRFLLATAAVVLVLSLAYGMVALIGYSVSFDKTTFRLLRGESNLFYTLAKWENNKLHVELPENIDKQSPTMTLIYDENGQLLWAQRDVPWLMKMIQPDWLKSNGFHEIEADVNDTSLLLSGDHSIQQQLQEVREDDDDAEMTHSVAVNVYPATSRMPKLTIVVVDTIPVELKSSYMVWSWFIYVLSANLLLVIPLLWVAAWWSLRPIEALAKEVRELEEHNRELLNPATTRELTSLVRNLNRLLKSERERYDKYRTTLTDLTHSLKTPLXXLQXXLRSLRSEKMSVSDAEPVMLEQISRISQQIGYYLHRASMRGGTLLSRELHPVAPLLDNLTSALNKVYQRKGVNISLDISPEISFVGEQNDFVEVMGNVLDNACKYCLEFVEISARQTDEHLYIVVEDDGPGIPLSKREVIFDRGQRVDTLRPGQGVGLAVAREITEQYEGKIVAGESMLGGARMEVIFGRQHSAPKDE
# Variants of: B1
# Assay: enrichment ratio after two sorts for PhoP signalling (ratio (wild type AVST 3.29)); higher = more functional
# Conditions: with PhoP (E. coli)
row,Variant,enrichment ratio
1,NCYM,≤ 0.25
2,VKSE,≤ 0.25
3,TNIT,≤ 0.25
4,TCFD,≤ 0.25
5,TVRQ,≤ 0.25
6,NSKT,≤ 0.25
7,GGDI,≤ 0.25
8,VPYD,≤ 0.25
9,FECN,13
10,DVDD,≤ 0.25
11,DHGL,≤ 0.25
12,IEGI,≤ 0.25
13,EGSE,≤ 0.25
14,GRVQ,≤ 0.25
15,SSGY,9.85
16,LFFV,≤ 0.25
17,WGQK,≤ 0.25
18,ATSS,9.75
19,AGDP,≤ 0.25
20,ACLK,13.7
21,TISI,16.9
22,RIYR,≤ 0.25
23,LFSS,≤ 0.25
24,EHLT,≤ 0.25

row,Variant,enrichment ratio
1,MKHP,≤ 0.25
2,EYCH,≤ 0.25
3,NWGA,≤ 0.25
4,FLWF,≤ 0.25
5,DSCP,≤ 0.25
6,VAKF,≤ 0.25
7,LGMD,≤ 0.25
8,DGAC,≤ 0.25
9,DSIR,≤ 0.25
10,DLPT,≤ 0.25
11,YFST,≤ 0.25
12,WQYD,≤ 0.25
13,DRFV,≤ 0.25
14,DAGV,≤ 0.25
15,QCDI,≤ 0.25
16,WLCD,≤ 0.25
17,GPQP,≤ 0.25
18,YLKM,≤ 0.25
19,NRMN,≤ 0.25
20,QHSK,≤ 0.25
21,IGAF,≤ 0.25
22,PPKP,≤ 0.25
23,YLMM,≤ 0.25
24,LCYY,≤ 0.25

row,Variant,enrichment ratio
1,LWID,≤ 0.25
2,WRDK,≤ 0.25
3,NLDK,≤ 0.25
4,IGGY,≤ 0.25
5,WAWK,≤ 0.25
6,DPKV,≤ 0.25
7,QWCH,≤ 0.25
8,MCAD,≤ 0.25
9,ASLL,19.9
10,VREI,≤ 0.25
11,NSIM,≤ 0.25
12,HNMA,≤ 0.25
13,PLEE,≤ 0.25
14,VQMC,≤ 0.25
15,FFRG,≤ 0.25
16,GVCF,25
17,FSTC,≤ 0.25
18,DFYC,≤ 0.25
19,VMGA,≤ 0.25
20,SRFR,≤ 0.25
21,HWWE,≤ 0.25
22,WDDT,≤ 0.25
23,VCKW,≤ 0.25
24,HSDL,≤ 0.25

row,Variant,enrichment ratio
1,VRYD,≤ 0.25
2,NDTV,5.54
3,QERQ,≤ 0.25
4,MHQM,≤ 0.25
5,NYSM,≤ 0.25
6,KSWL,≤ 0.25
7,IRKT,≤ 0.25
8,HWQA,≤ 0.25
9,DRSE,≤ 0.25
10,GNIV,9.65
11,PHGT,≤ 0.25
12,PQFR,≤ 0.25
13,SKWT,≤ 0.25
14,LEWH,4.66
15,SEED,≤ 0.25
16,WKML,≤ 0.25
17,ELLP,≤ 0.25
18,FNHY,≤ 0.25
19,MAKY,≤ 0.25
20,VDGT,≤ 0.25
21,TVGY,10.4
22,YLLE,≤ 0.25
23,PLKG,≤ 0.25
24,NIPL,≤ 0.25

row,Variant,enrichment ratio
1,TDRT,≤ 0.25
2,IIDW,≤ 0.25
3,HTVP,≤ 0.25
4,LEKH,≤ 0.25
5,RYPQ,≤ 0.25
6,RNKS,≤ 0.25
7,KHAP,≤ 0.25
8,YECN,≤ 0.25
9,RIAT,≤ 0.25
10,FPIE,≤ 0.25
11,IHCR,≤ 0.25
12,RYDF,≤ 0.25
13,MSSC,5.54
14,GTAS,≤ 0.25
15,VDKY,≤ 0.25
16,AQPS,≤ 0.25
17,YKET,≤ 0.25
18,WFDS,≤ 0.25
19,SSYM,4.79
20,MHQR,≤ 0.25
21,PRFG,≤ 0.25
22,TKFM,9.89
23,GDCY,7.84
24,TQYW,≤ 0.25

row,Variant,enrichment ratio
1,RMDA,≤ 0.25
2,PQMR,≤ 0.25
3,AFRN,≤ 0.25
4,HDLI,≤ 0.25
5,FEMM,5.97
6,SQMR,≤ 0.25
7,MYWL,≤ 0.25
8,GQTV,4.75
9,MRGG,≤ 0.25
10,WGPL,≤ 0.25
11,TLAK,≤ 0.25
12,SPQL,≤ 0.25
13,PAQN,≤ 0.25
14,GHEA,≤ 0.25
15,QHDL,10.4
16,NQHY,≤ 0.25
17,VYSM,≤ 0.25
18,HCDF,≤ 0.25
19,MTNW,≤ 0.25
20,VFQD,≤ 0.25
21,VHAD,≤ 0.25
22,SGMQ,15.4
23,MGGC,6.75
24,KCWW,≤ 0.25

row,Variant,enrichment ratio
1,AWVA,≤ 0.25
2,EKAC,≤ 0.25
3,GPMI,≤ 0.25
4,WDES,≤ 0.25
5,VKTK,≤ 0.25
6,IMSP,≤ 0.25
7,QIAQ,≤ 0.25
8,FTCL,9.73
9,FPYL,≤ 0.25
10,TCQH,≤ 0.25
11,NPTP,≤ 0.25
12,PDYD,≤ 0.25
13,AQEH,≤ 0.25
14,QYWI,≤ 0.25
15,TDAM,17.8
16,MGKH,≤ 0.25
17,PYTV,≤ 0.25
18,FEDK,≤ 0.25
19,EVCG,≤ 0.25
20,ENRF,≤ 0.25
21,DKCM,≤ 0.25
22,RIGT,≤ 0.25
23,MQMD,≤ 0.25
24,NMPI,≤ 0.25

row,Variant,enrichment ratio
1,LCFA,≤ 0.25
2,WEGK,≤ 0.25
3,GDKA,≤ 0.25
4,AWPD,≤ 0.25
5,SFPF,≤ 0.25
6,MMYH,≤ 0.25
7,LLCS,≤ 0.25
8,NDTK,≤ 0.25
9,FNSA,≤ 0.25
10,SWLM,≤ 0.25
11,GWIT,≤ 0.25
12,VCVW,≤ 0.25
13,FQIV,≤ 0.25
14,SGKE,≤ 0.25
15,MRMP,≤ 0.25
16,PSRI,≤ 0.25
17,DYEK,≤ 0.25
18,TRPY,≤ 0.25
19,NWPL,≤ 0.25
20,SVGR,1.46
21,HAYI,≤ 0.25
22,KIFF,≤ 0.25
23,YITL,0.736
24,TRGG,≤ 0.25

row,Variant,enrichment ratio
1,YKVK,≤ 0.25
2,YYQI,≤ 0.25
3,QSKQ,≤ 0.25
4,GSHP,≤ 0.25
5,YGEE,≤ 0.25
6,NMSE,≤ 0.25
7,MGSH,1.72
8,GQRM,≤ 0.25
9,LFIK,≤ 0.25
10,RPQM,≤ 0.25
11,RVEA,≤ 0.25
12,ELAP,≤ 0.25
13,VIYM,≤ 0.25
14,IQVC,≤ 0.25
15,VDGV,≤ 0.25
16,LIMY,≤ 0.25
17,PNDP,≤ 0.25
18,QGFV,≤ 0.25
19,HNSD,≤ 0.25
20,KQTR,≤ 0.25
21,MMFD,≤ 0.25
22,RMIT,≤ 0.25
23,HVFS,≤ 0.25
24,FMSP,≤ 0.25

row,Variant,enrichment ratio
1,FCQP,≤ 0.25
2,KKCL,1.66
3,APIH,≤ 0.25
4,QCGF,3.02
5,NPIG,≤ 0.25
6,YVYA,≤ 0.25
7,IVAT,≤ 0.25
8,ASSH,9.29
9,EACQ,≤ 0.25
10,EQNL,≤ 0.25
11,WYGL,≤ 0.25
12,KDMA,≤ 0.25
13,EMMP,≤ 0.25
14,IPRR,≤ 0.25
15,MPTY,≤ 0.25
16,KMIG,≤ 0.25
17,MCWR,≤ 0.25
18,KFAL,≤ 0.25
19,HTPM,≤ 0.25
20,LKWD,≤ 0.25
21,LDYS,≤ 0.25
22,APRD,≤ 0.25
23,APVC,≤ 0.25
24,MTRY,≤ 0.25

row,Variant,enrichment ratio
1,FTRS,≤ 0.25
2,ILIA,≤ 0.25
3,LSRY,≤ 0.25
4,NKWI,≤ 0.25
5,FILS,0.438
6,QGNL,≤ 0.25
7,KIQF,≤ 0.25
8,VHKP,≤ 0.25
9,RPNY,≤ 0.25
10,LAAF,≤ 0.25
11,TIHR,≤ 0.25
12,YITC,≤ 0.25
13,SNWA,≤ 0.25
14,LAHG,≤ 0.25
15,SHEF,≤ 0.25
16,SYEH,≤ 0.25
17,GTND,≤ 0.25
18,VWNC,≤ 0.25
19,LICW,≤ 0.25
20,AARW,≤ 0.25
21,YCFE,≤ 0.25
22,FRNP,≤ 0.25
23,TEWK,≤ 0.25
24,EENP,≤ 0.25

row,Variant,enrichment ratio
1,HWAY,≤ 0.25
2,QQCY,≤ 0.25
3,SHFQ,≤ 0.25
4,VLFT,≤ 0.25
5,PIPF,≤ 0.25
6,KILN,≤ 0.25
7,AMAH,10.9
8,TQIY,1.32
9,NRRT,≤ 0.25
10,PKVC,≤ 0.25
11,VTTN,≤ 0.25
12,WTLP,≤ 0.25
13,SGFT,≤ 0.25
14,RLPI,≤ 0.25
15,QIRP,≤ 0.25
16,NQVI,≤ 0.25
17,VQHA,≤ 0.25
18,MYQL,≤ 0.25
19,PKMN,≤ 0.25
20,GCSC,≤ 0.25
21,MAIC,≤ 0.25
22,FTWY,≤ 0.25
23,THGE,≤ 0.25
24,AHPL,≤ 0.25

row,Variant,enrichment ratio
1,KSES,≤ 0.25
2,ELNT,≤ 0.25
3,SPRE,≤ 0.25
4,KCSL,≤ 0.25
5,TRHH,2.69
6,TADL,4.99
7,PGFT,≤ 0.25
8,NQSC,≤ 0.25
9,FFYI,≤ 0.25
10,RAYP,≤ 0.25
11,AILW,≤ 0.25
12,EQST,≤ 0.25
13,TKVF,3.68
14,FAHT,≤ 0.25
15,IRAC,≤ 0.25
16,AQCI,8.62
17,WVHF,≤ 0.25
18,LEHK,≤ 0.25
